{"source": "PubChem BioAssay AID686971", "about": "(National Center for Advancing Translational Sciences (NCATS), 2013)", "note": "Among all 360,000 compounds or so, about 7,500 (2.1%) were called active. Inconclusive results, whose numbers are uncertain, are shown with a selection of clear calls. Calls follow the shape of the dose curve; as a rule, active = well fitted cell-killing curve with a large enough effect; inconclusive = small, poorly fitted or top-dose-only effect, or effect the other way, or another doubt; inactive = no such curve, though single readings can be large or run the other way. No potency is given beside an inconclusive call; the fits are too rough. The source holds several records for some structures; these can differ, active in one and inactive in another. Potency is read from the fitted curve at half-maximal effect; tags tell the direction and shape of the fitted curve."}
{"test": "qHTS for induction of synthetic lethality in tumor cells producing 2HG: qHTS for the HT-1080-IDH1KD cell line;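 as to activity, negative = toxicity: 0% = DMSO wells and -100% = cell-free medium wells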", "conditions": "HT-1080 IDH1 knockdown viability, ATP luminescence, 48 h; activity, negative = toxicity: at 46.1 µM (top of the series) unless noted", "summary_of_the_method": "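IDH1KD HT-1080 cells, 750/well, RPMI + 5% FBS; compound pinned after 2 h settling; 48 h, 37 °C; CellTiter-Glo luminescence; % activity normalised to DMSO and no-cell wells; curves fitted, classed by r2 and efficacy.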"}
{"smiles": "C=CCc1ccc(OCCCCN2CC(C)OC(C)C2)c(OC)c1", "note": "(stereo unspecified)", "activity, negative = toxicity": "inactive: 4.81%"}
{"smiles": "COC(=O)/C=C1\\OCc2cc(OCc3ccccc3)ccc21", "activity, negative = toxicity": "inactive: -19.4%"}
{"smiles": "CCCC1=Nc2cc(C(=O)NCCN3CCCC3)ccc2Sc2ccccc21", "Potency": "inconclusive [cytotoxic, single point]"}
{"smiles": "Oc1ccc(CCNc2ncnc3ccc(Cl)cc23)cc1", "Potency": "inconclusive [cytotoxic, full curve]"}
{"smiles": "O=C(N/N=C/c1cccc([N+](=O)[O-])c1)c1cc[n+](CCO)cc1", "activity, negative = toxicity": "inactive: 4.2%"}
{"smiles": "Cc1cc2oc3c(c(=O)c2cc1C)C(c1cccc(Br)c1)N(Cc1ccco1)C3=O", "note": "(stereo unspecified)", "Potency": "inconclusive [cytotoxic, single point]"}
{"smiles": "Nc1nc2ccccc2n1C(=O)CCc1ccccc1", "activity, negative = toxicity": "inactive: -19.5%"}
{"smiles": "O=C(CCS(=O)(=O)c1ccc(Cl)cc1)NC1CCCC1", "activity, negative = toxicity": "inactive: 1.16%"}
{"smiles": "Cc1cc(=O)oc2c(C)c(OC(C)C(=O)N3CC[C@@]4(O)CCCC[C@H]4C3)ccc12", "note": "(stereo partly specified)", "Potency": "inconclusive [cytotoxic, single point]"}
{"smiles": "CC(NC(C)c1ccccc1Cl)C(=O)Nc1cccc(S(=O)(=O)N2CCCCC2)c1", "note": "(stereo unspecified)", "Potency": "inconclusive [cytotoxic, single point]"}
{"smiles": "COc1ccc(/C=C2/SC(=S)N(CCCC(=O)N3CCN(C)CC3)C2=O)cc1", "activity, negative = toxicity": "inactive: -28.9%"}
{"smiles": "O=C(/C=C/c1ccc(O)c([N+](=O)[O-])c1)c1ccc2ccccc2c1", "Potency": "inconclusive [cytotoxic, single point]"}
{"smiles": "CCC(Sc1nncn1C)C(=O)Nc1cc(C)on1", "note": "(stereo unspecified)", "activity, negative = toxicity": "inconclusive: 32.3%"}
{"smiles": "COc1ccccc1-n1c(CNc2ccc(F)cc2)nnc1SCC(=O)Nc1cc(C)on1", "activity, negative = toxicity": "inactive: 7.32%"}
{"smiles": "COc1c(OC(C)=O)ccc(/C=C/c2ccc3cccc(OCc4ccccc4)c3n2)c1[N+](=O)[O-]", "Potency": "inconclusive [cytotoxic, single point]"}
{"smiles": "COCCn1c(=S)[nH]c2cc(C(=O)N3CCc4ccccc43)ccc2c1=O", "Potency": "inconclusive [cytotoxic, single point]"}
{"smiles": "O=C(CSc1nnnn1-c1ccc(O)cc1)Nc1ccc(N2CCOCC2)c(Cl)c1", "Potency": "inconclusive [cytotoxic, single point]"}
{"smiles": "COc1ccc(N2CCN(C(=O)c3cccnc3SCc3cccc(Br)c3)CC2)cc1", "activity, negative = toxicity": "inactive: -13.8%"}
{"smiles": "CCOC(=O)C1(Cc2ccc(OC)cc2)CCN(C(=O)c2ccc3[nH]ccc3c2)CC1", "Potency": "active: 25.9 µM"}
{"smiles": "CC1(Oc2ccc(CC#N)cc2)CCN(Cc2ccccc2OC(F)F)C1", "note": "(stereo unspecified)", "activity, negative = toxicity": "inactive: 10.4%"}
{"smiles": "COc1ccc(C(=O)c2no[n+]([O-])c2C(=O)c2ccc(OC)cc2)cc1", "Potency": "active: 8.2 µM"}
{"smiles": "COC(=O)CCSC(=S)N1CCOCC1", "Potency": "inconclusive [rising, partial curve]"}
{"smiles": "CO/N=C1\\CCn2c1c(C)c1ccccc12", "Potency": "inconclusive [rising, partial curve, poor fit]"}
{"smiles": "COc1nc(N2CCCC2)nc(-n2nnc(C(C)=O)c2C)n1", "activity, negative = toxicity": "inconclusive: 30.5%"}
{"smiles": "OCCCc1nc2ccccc2n1Cc1ccccc1", "activity, negative = toxicity": "inactive: 3.23%"}
{"smiles": "CSc1nc(NCc2ccco2)c2ccccc2n1", "Potency": "inconclusive [cytotoxic, single point]"}
{"smiles": "COc1ccccc1C/C(N)=N/OC(=O)c1ccc(C)c([N+](=O)[O-])c1", "Potency": "active: 10 µM"}
{"smiles": "Cc1ccccc1CN1C(=O)c2ccccc2Sc2ccc(C(=O)NCCCN3CCOCC3)cc21", "Potency": "inconclusive [cytotoxic, partial curve, poor fit]"}
{"smiles": "COc1ccc(-n2c(-c3ccc(Br)cc3)c[n+]3c2CCCCC3)cc1", "Potency": "inconclusive [cytotoxic, single point]"}
{"smiles": "COc1ccccc1N1CCN(CC(O)COc2cccc3ccccc23)CC1", "note": "(stereo unspecified)", "Potency": "active: 14.6 µM"}
{"smiles": "COc1ccc(Nc2cc(C)nc(-n3nc(C)cc3C)n2)cc1", "Potency": "active: 0.794 µM"}
{"smiles": "Cc1cccc(C)c1OCC(=O)NNC(=S)NC(=O)C1CC1", "Potency": "inconclusive [cytotoxic, partial curve]"}
{"smiles": "O=C(COc1ccc(/C=N/NS(=O)(=O)c2ccccc2)cc1)Nc1cccc(Cl)c1", "Potency": "inconclusive [cytotoxic, partial curve]"}
{"smiles": "COc1cc(N)c(Cl)cc1C(=O)OCC(=O)N1CCCCCC1", "activity, negative = toxicity": "inactive: -1.45%"}
{"smiles": "CN1CCCC(CC2c3ccccc3Sc3ccccc32)C1", "note": "(stereo unspecified)", "Potency": "active: 18.4 µM"}
{"smiles": "O=C(CNC(=O)c1ccco1)NCC(c1ccco1)N1CCCCC1", "note": "(stereo unspecified)", "activity, negative = toxicity": "inactive: 5.76%"}
{"smiles": "COc1cc(NS(=O)(=O)c2ccc(Nc3nc(-c4ccccc4)cs3)cc2)nc(OC)n1", "Potency": "inconclusive [cytotoxic, single point]"}
{"smiles": "O=C(NCc1ccncc1)Nc1ccc(Cc2ccc(NC(=O)NCc3ccncc3)cc2)cc1", "activity, negative = toxicity": "inactive: -3.7%"}
{"smiles": "O=C(CCn1ccnc1)Nc1cc(Cl)ccc1O", "activity, negative = toxicity": "inactive: 0.981%"}
{"smiles": "CC(C)(C)C(=O)Nc1nnc(CSCc2ccccc2F)s1", "activity, negative = toxicity": "inactive: 1.65%"}
{"smiles": "Cc1ccc(S(=O)(=O)N2CCCC2)cc1S(=O)(=O)N1CCCC1", "activity, negative = toxicity": "inactive: -12.4%"}
{"smiles": "CCc1ccc(-n2c(CSc3nnnn3-c3ccccc3)nc3ccccc3c2=O)cc1", "activity, negative = toxicity": "inactive: 1.34%"}
{"smiles": "Cc1cc(N)cc(C)c1-c1c(Br)cc(N)cc1Br", "Potency": "inconclusive [cytotoxic, single point]"}
{"smiles": "COc1ccc(-c2sc3cc4c(cc3c2C#Cc2ccc(N)cc2)OCO4)cc1", "Potency": "inconclusive [cytotoxic, single point]"}
{"smiles": "O=S1(=O)CCN(Cc2ccc(Cl)cc2)CC1", "activity, negative = toxicity": "inactive: 9.38%"}
{"smiles": "COc1cccc(OC)c1C(=O)N1CCN(Cc2ccccc2F)CC1", "activity, negative = toxicity": "inactive: 1.13%"}
{"smiles": "COc1ccc(-c2nnc(SCc3nnc(-c4ccccc4)o3)n2C)cc1OC", "activity, negative = toxicity": "inactive: -0.344%"}
{"smiles": "COc1ccc(-c2coc3c(C(=O)Nc4cccc(C(C)=O)c4)cccc23)c(C)c1", "Potency": "inconclusive [cytotoxic, single point]"}
{"smiles": "CNC(=O)c1c(NC(=O)CCS(=O)(=O)c2ccccc2)sc(C)c1C", "activity, negative = toxicity": "inactive: 5.49%"}
{"smiles": "Cc1ccc(-c2nn3c(C)nnc3c3ccccc23)cc1S(=O)(=O)NC(C)(C)CO", "Potency": "inconclusive [cytotoxic, single point]"}
{"smiles": "CC(OC(=O)c1cccc(S(=O)(=O)N(C)C)c1)C(=O)NCC(=O)Nc1ccc(F)c(F)c1F", "note": "(stereo unspecified)", "activity, negative = toxicity": "inactive: -9.47%"}
{"smiles": "O=C(Nc1nc(-c2ccco2)c(-c2ccco2)s1)c1cnccn1", "Potency": "inconclusive [cytotoxic, partial curve]"}
{"smiles": "Cc1ccc(C(=O)c2cc([N+](=O)[O-])ccc2N2CCOCC2)c(C)c1", "Potency": "inconclusive [cytotoxic, full curve]"}
{"smiles": "O=C(O)c1c2c(nc3ccc(S(=O)(=O)N4CCC(C(=O)NC5CCCCCC5)CC4)cc13)CCCC2", "activity, negative = toxicity": "inactive: 3.79%"}
{"smiles": "COc1ccc(/C=C/C(=O)N(C)C2CCCCC2)cc1Br", "activity, negative = toxicity": "inactive: -17.8%"}
{"smiles": "CC1CCCN(C(=O)C2CCN(S(=O)(=O)c3cccc4nsnc34)CC2)C1", "note": "(stereo unspecified)", "activity, negative = toxicity": "inactive: 0%"}
{"smiles": "Cc1ccc(C(C(=O)NC2CCCCC2)N(Cc2ccco2)C(=O)Cn2cnc3ccccc32)cc1", "note": "(stereo unspecified)", "Potency": "inconclusive [cytotoxic, single point]"}
{"smiles": "Cc1c(Cc2ccc3c(c2)OCO3)sc(NC(=O)c2cccc3ccccc23)c1C(N)=O", "Potency": "inconclusive [cytotoxic, single point]"}
{"smiles": "Cc1ccc(C=Nc2ccc(N(C)C)cc2)o1", "Potency": "inconclusive [cytotoxic, single point]"}
{"smiles": "CC(=O)c1cccc(-c2ccnc3c2CC(C(=O)Nc2cccc(NS(C)(=O)=O)c2)O3)c1", "note": "(stereo unspecified)", "Potency": "active: 18.4 µM"}
{"smiles": "O=C1Cc2c([nH]c3ccc([N+](=O)[O-])cc23)-c2ccccc2N1", "Potency": "active: 2.06 µM"}
{"smiles": "COc1ccccc1C1=CC(=O)C[C@H](c2ccc(Cl)cc2)C1", "Potency": "inconclusive [cytotoxic, single point]"}
{"smiles": "Cc1ccc(CNC(=O)COC(=O)c2cncc(Br)c2)cc1", "activity, negative = toxicity": "inactive: 6.6%"}
{"smiles": "N#Cc1nc(Cc2cccc3ccccc23)oc1NCc1ccc2c(c1)OCO2", "Potency": "inconclusive [cytotoxic, single point]"}
{"smiles": "O=C1NC[C@H](Cc2ccc(O)cc2)N(C[C@H]2CCCN2C[C@H](Cc2ccccc2)N2C[C@H](Cc3ccccc3)N(CCc3ccccc3)C(=O)C2=O)C1=O", "Potency": "inconclusive [cytotoxic, single point]"}
{"smiles": "CCCSc1nnc2n(C)c(=O)c3c4c(sc3n12)CCC4", "Potency": "inconclusive [cytotoxic, partial curve]"}
{"smiles": "CCCCCCCCNS(=O)(=O)CCNC1CC1", "activity, negative = toxicity": "inactive: -0.814%"}
{"smiles": "COc1ccc(C2CC(c3ccccc3Cl)=NN2c2ccc(S(N)(=O)=O)cc2)cc1", "note": "(stereo unspecified)", "Potency": "inconclusive [cytotoxic, single point]"}
{"smiles": "Cc1cc(-c2ccc(C)c(S(=O)(=O)NCC3CCN(Cc4cccc(F)c4)CC3)c2)on1", "Potency": "inconclusive [cytotoxic, single point]"}
{"smiles": "CCCCc1ccc(NC(=O)Nc2cc(C)nn2C)cc1", "activity, negative = toxicity": "inconclusive: -25.5% [cytotoxic]"}
{"smiles": "COc1ccc(-c2oc3ncnc(NCCCO)c3c2-c2ccc(OC)cc2)cc1", "Potency": "inconclusive [cytotoxic, partial curve]"}
{"smiles": "COCCN(C(=O)CSc1nnc(-c2ccccc2F)n1C)c1c(N)n(Cc2ccccc2)c(=O)[nH]c1=O", "activity, negative = toxicity": "inactive: -1.31%"}
{"smiles": "COc1cccc(Nc2nc(C(N)C3CCCCC3)cs2)n1", "note": "(stereo unspecified)", "Potency": "active: 16.4 µM"}
{"smiles": "CCC(=O)Nc1nc2ccc3sc(C)nc3c2s1", "activity, negative = toxicity": "inconclusive: -31.6% [cytotoxic]"}
{"smiles": "COc1cccc(CNn2c(-c3cccc(C)c3)nc3ccccc3c2=O)c1", "activity, negative = toxicity": "inactive: 3.17% [at 9.24 µM]"}
{"smiles": "Cc1cccc(Oc2ccc(S(=O)(=O)N3CCCCC3)cc2NC(=O)C2=COCCO2)c1", "Potency": "inconclusive [cytotoxic, partial curve]"}
